Data as given in the supplement of paper PMC12217912.
The other results are listed elsewhere or left out. The full chains were built here from the parent and the listed change. Inactive controls read about 0.05.

B1: TEV protease; numbered along this chain (parent)
chain: MGESLFKGPRDYNPISSSICHLTNESDGHTTSLYGIGFGPFIITNKHLFRRNNGTLVVQSLHGVFKVKDTTTLQQHLVDGRDMIIIRMPKDFPPFPQKLKFREPQREERICLVTTNFQTKSMSSMVSDTSCTFPSGDGIFWKHWIQTKDGQCGSPLVSTRDGFIVGIHSASNFTNTNNYFTSVPKNFMELLTNQEAQQWVSGWRLNADSVLWGGHKVFMVKPEEPFQPVKEATQL

Variants of: B1
Assay: raw area under fraction-flipped curve 0-4 h after induction (AUC4h, not background-subtracted), DNA-recorder readout of cleavage of the substrate (dimensionless); higher = more cleavage of the substrate by the protease variant
Settings: temperature: 34 °C; time window: 0-4 h after rhamnose induction
Protocol: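 In vivo DNA recorder in E. coli TOP10(DE3) ΔrhaA at 34 °C. Each TEVp single-site mutant (parent TEVp 0) is paired with a single-site variant of the 7-mer TEVs (canonical ENLYFQ|S). The substrate sits between flexible linkers in a Bxb1-sfGFP-TEVs-SsrA fusion, so cleavage stabilises Bxb1 and speeds flipping of a recombination array, read by NGS. The value is the raw area under the fraction-flipped curve over 0-4 h after rhamnose induction (AUC4h), with ≥20 reads per time point. It is not background-subtracted; inactive controls average about 0.047.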
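Further: Bxb1 expression induced with 0.2% (w/v) L-rhamnose at OD600 near 0.5, cultures sampled hourly, flipped fraction per protease–substrate barcode pair counted by paired-end Illumina sequencing.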

MGESLFKGPRDYNPISSSICHLTNESDGHTTSLYGIGFGPFIITNKHLFRRNNGTLVVQSLHGVFKVKDTTTLQQHLVDGRDMIIIRMPKDFPPFPQKLKFREPQREERICLVTTNFQTKSMSSMVSDTSCTFPSGDGIFWKHWIQTKDGQCGMPLVSTRDGFIVGIHSASNFTNTNNYFTSVPKNFMELLTNQEAQQWVSGWRLNADSVLWGGHKVFMVKPEEPFQPVKEATQL [S154M]
area with substrate CNLYFQS: 0.0244 | area with substrate DNLYFQS: 0.0696 | area with substrate GNLYFQS: 0.0645 | area with substrate HNLYFQS: 0.0655 | area with substrate INLYFQS: 0.0596 | area with substrate KNLYFQS: 0.0569 | area with substrate LNLYFQS: 0.0637 | area with substrate MNLYFQS: 0.0598 | area with substrate NNLYFQS: 0.102 | area with substrate PNLYFQS: 0.0697 | area with substrate RNLYFQS: 0.0415 | area with substrate TNLYFQS: 0.0523 | area with substrate WNLYFQS: 0.0575 | area with substrate YNLYFQS: 0.0669

MGESLFKGPRDYNPISSSICHLTNESDGHTTSLYGIGFGPFIITNKHLFRRNNGTLVVQSLHGVFKVKDTTTLQQHLVDGRDMIIIRMPKDFPPFPQKLKFREPQREERICLVTTNFQTKSMSSMVSDTSCTFPSGDGIFWKHWIQTKDGQCGFPLVSTRDGFIVGIHSASNFTNTNNYFTSVPKNFMELLTNQEAQQWVSGWRLNADSVLWGGHKVFMVKPEEPFQPVKEATQL [S154F]
area with substrate CNLYFQS: 0.0635 | area with substrate DNLYFQS: 0.0693 | area with substrate FNLYFQS: 0.0451 | area with substrate LNLYFQS: 0.0578 | area with substrate QNLYFQS: 0.0446 | area with substrate TNLYFQS: 0.0579 | area with substrate YNLYFQS: 0.0563

MGESLFKGPRDYNPISSSICHLTNESDGHTTSLYGIGFGPFIITNKHLFRRNNGTLVVQSLHGVFKVKDTTTLQQHLVDGRDMIIIRMPKDFPPFPQKLKFREPQREERICLVTTNFQTKSMSSMVSDTSCTFPSGDGIFWKHWIQTKDGQCGLPLVSTRDGFIVGIHSASNFTNTNNYFTSVPKNFMELLTNQEAQQWVSGWRLNADSVLWGGHKVFMVKPEEPFQPVKEATQL [S154L]
area with substrate CNLYFQS: 0.0674 | area with substrate DNLYFQS: 0.159 | area with substrate HNLYFQS: 0.0756 | area with substrate KNLYFQS: 0.085 | area with substrate LNLYFQS: 0.0639 | area with substrate MNLYFQS: 0.0539 | area with substrate NNLYFQS: 0.0665 | area with substrate TNLYFQS: 0.061 | area with substrate WNLYFQS: 0.0564

MGESLFKGPRDYNPISSSICHLTNESDGHTTSLYGIGFGPFIITNKHLFRRNNGTLVVQSLHGVFKVKDTTTLQQHLVDGRDMIIIRMPKDFPPFPQKLKFREPQREERICLVTTNFQTKSMSSMVSDTSCTFPSGDGIFWKHWIQTKDGQCGCPLVSTRDGFIVGIHSASNFTNTNNYFTSVPKNFMELLTNQEAQQWVSGWRLNADSVLWGGHKVFMVKPEEPFQPVKEATQL [S154C]
area with substrate CNLYFQS: 0.0933 | area with substrate DNLYFQS: 0.0711 | area with substrate GNLYFQS: 0.0603 | area with substrate HNLYFQS: 0.0458 | area with substrate INLYFQS: 0.0788 | area with substrate KNLYFQS: 0.0734 | area with substrate LNLYFQS: 0.0616 | area with substrate MNLYFQS: 0.0568 | area with substrate NNLYFQS: 0.0693 | area with substrate PNLYFQS: 0.0747 | area with substrate QNLYFQS: 0.0569 | area with substrate RNLYFQS: 0.0708 | area with substrate SNLYFQS: 0.0731 | area with substrate TNLYFQS: 0.0348 | area with substrate VNLYFQS: 0.0466 | area with substrate WNLYFQS: 0.047 | area with substrate YNLYFQS: 0.0604

MGESLFKGPRDYNPISSSICHLTNESDGHTTSLYGIGFGPFIITNKHLFRRNNGTLVVQSLHGVFKVKDTTTLQQHLVDGRDMIIIRMPKDFPPFPQKLKFREPQREERICLVTTNFQTKSMSSMVSDTSCTFPSGDGIFWKHWIQTKDGQCGRPLVSTRDGFIVGIHSASNFTNTNNYFTSVPKNFMELLTNQEAQQWVSGWRLNADSVLWGGHKVFMVKPEEPFQPVKEATQL [S154R]
area with substrate CNLYFQS: 0.0612 | area with substrate DNLYFQS: 0.0704 | area with substrate GNLYFQS: 0.0562 | area with substrate HNLYFQS: 0.0617 | area with substrate INLYFQS: 0.0716 | area with substrate KNLYFQS: 0.0648 | area with substrate LNLYFQS: 0.0654 | area with substrate MNLYFQS: 0.0306 | area with substrate NNLYFQS: 0.0646 | area with substrate PNLYFQS: 0.0501 | area with substrate RNLYFQS: 0.0541 | area with substrate SNLYFQS: 0.0512 | area with substrate TNLYFQS: 0.0554 | area with substrate VNLYFQS: 0.0607 | area with substrate WNLYFQS: 0.0549 | area with substrate YNLYFQS: 0.0674

MGESLFKGPRDYNPISSSICHLTNESDGHTTSLYGIGFGPFIITNKHLFRRNNGTLVVQSLHGVFKVKDTTTLQQHLVDGRDMIIIRMPKDFPPFPQKLKFREPQREERICLVTTNFQTKSMSSMVSDTSCTFPSGDGIFWKHWIQTKDGQCGSPSVSTRDGFIVGIHSASNFTNTNNYFTSVPKNFMELLTNQEAQQWVSGWRLNADSVLWGGHKVFMVKPEEPFQPVKEATQL [L156S]
area with substrate CNLYFQS: 0.0682 | area with substrate DNLYFQS: 0.0581 | area with substrate FNLYFQS: 0.056 | area with substrate HNLYFQS: 0.063 | area with substrate INLYFQS: 0.0594 | area with substrate LNLYFQS: 0.0648 | area with substrate MNLYFQS: 0.0552 | area with substrate PNLYFQS: 0.054 | area with substrate SNLYFQS: 0.054 | area with substrate TNLYFQS: 0.045 | area with substrate WNLYFQS: 0.0523

MGESLFKGPRDYNPISSSICHLTNESDGHTTSLYGIGFGPFIITNKHLFRRNNGTLVVQSLHGVFKVKDTTTLQQHLVDGRDMIIIRMPKDFPPFPQKLKFREPQREERICLVTTNFQTKSMSSMVSDTSCTFPSGDGIFWKHWIQTKDGQCGSPGVSTRDGFIVGIHSASNFTNTNNYFTSVPKNFMELLTNQEAQQWVSGWRLNADSVLWGGHKVFMVKPEEPFQPVKEATQL [L156G]
area with substrate CNLYFQS: 0.037 | area with substrate DNLYFQS: 0.0619 | area with substrate GNLYFQS: 0.0697 | area with substrate HNLYFQS: 0.0505 | area with substrate INLYFQS: 0.0412 | area with substrate KNLYFQS: 0.0627 | area with substrate LNLYFQS: 0.0471 | area with substrate MNLYFQS: 0.0496 | area with substrate SNLYFQS: 0.0486 | area with substrate TNLYFQS: 0.04 | area with substrate VNLYFQS: 0.0474 | area with substrate YNLYFQS: 0.0783

MGESLFKGPRDYNPISSSICHLTNESDGHTTSLYGIGFGPFIITNKHLFRRNNGTLVVQSLHGVFKVKDTTTLQQHLVDGRDMIIIRMPKDFPPFPQKLKFREPQREERICLVTTNFQTKSMSSMVSDTSCTFPSGDGIFWKHWIQTKDGQCGSPCVSTRDGFIVGIHSASNFTNTNNYFTSVPKNFMELLTNQEAQQWVSGWRLNADSVLWGGHKVFMVKPEEPFQPVKEATQL [L156C]
area with substrate CNLYFQS: 0.0541 | area with substrate DNLYFQS: 0.0766 | area with substrate GNLYFQS: 0.0474 | area with substrate HNLYFQS: 0.064 | area with substrate INLYFQS: 0.0473 | area with substrate KNLYFQS: 0.0614 | area with substrate LNLYFQS: 0.0731 | area with substrate PNLYFQS: 0.0575 | area with substrate SNLYFQS: 0.0519 | area with substrate TNLYFQS: 0.069 | area with substrate WNLYFQS: 0.0625 | area with substrate YNLYFQS: 0.0651

MGESLFKGPRDYNPISSSICHLTNESDGHTTSLYGIGFGPFIITNKHLFRRNNGTLVVQSLHGVFKVKDTTTLQQHLVDGRDMIIIRMPKDFPPFPQKLKFREPQREERICLVTTNFQTKSMSSMVSDTSCTFPSGDGIFWKHWIQTKDGGCGSPLVSTRDGFIVGIHSASNFTNTNNYFTSVPKNFMELLTNQEAQQWVSGWRLNADSVLWGGHKVFMVKPEEPFQPVKEATQL [Q151G]
area with substrate CNLYFQS: 0.0691 | area with substrate DNLYFQS: 0.0678 | area with substrate FNLYFQS: 0.0425 | area with substrate GNLYFQS: 0.0636 | area with substrate HNLYFQS: 0.0568 | area with substrate INLYFQS: 0.0751 | area with substrate KNLYFQS: 0.0673 | area with substrate PNLYFQS: 0.0586 | area with substrate QNLYFQS: 0.0653 | area with substrate TNLYFQS: 0.0502 | area with substrate WNLYFQS: 0.0495 | area with substrate YNLYFQS: 0.0424
